Reference: paper PMC4336329 (PLoS ONE, 2015)
About 2,200 (0.71%) of roughly 310,000 compounds showed an effect of 50% or more. Effects have a minus sign here. Some of the results follow.

Target: human ether-à-go-go-related gene (hERG) potassium channel (human, UniProt Q12809)
Assay: primary screen, population patch clamp on CHO cells stably expressing hERG

Sequence of human ether-à-go-go-related gene (hERG) potassium channel (Q12809 whole entry, looked up): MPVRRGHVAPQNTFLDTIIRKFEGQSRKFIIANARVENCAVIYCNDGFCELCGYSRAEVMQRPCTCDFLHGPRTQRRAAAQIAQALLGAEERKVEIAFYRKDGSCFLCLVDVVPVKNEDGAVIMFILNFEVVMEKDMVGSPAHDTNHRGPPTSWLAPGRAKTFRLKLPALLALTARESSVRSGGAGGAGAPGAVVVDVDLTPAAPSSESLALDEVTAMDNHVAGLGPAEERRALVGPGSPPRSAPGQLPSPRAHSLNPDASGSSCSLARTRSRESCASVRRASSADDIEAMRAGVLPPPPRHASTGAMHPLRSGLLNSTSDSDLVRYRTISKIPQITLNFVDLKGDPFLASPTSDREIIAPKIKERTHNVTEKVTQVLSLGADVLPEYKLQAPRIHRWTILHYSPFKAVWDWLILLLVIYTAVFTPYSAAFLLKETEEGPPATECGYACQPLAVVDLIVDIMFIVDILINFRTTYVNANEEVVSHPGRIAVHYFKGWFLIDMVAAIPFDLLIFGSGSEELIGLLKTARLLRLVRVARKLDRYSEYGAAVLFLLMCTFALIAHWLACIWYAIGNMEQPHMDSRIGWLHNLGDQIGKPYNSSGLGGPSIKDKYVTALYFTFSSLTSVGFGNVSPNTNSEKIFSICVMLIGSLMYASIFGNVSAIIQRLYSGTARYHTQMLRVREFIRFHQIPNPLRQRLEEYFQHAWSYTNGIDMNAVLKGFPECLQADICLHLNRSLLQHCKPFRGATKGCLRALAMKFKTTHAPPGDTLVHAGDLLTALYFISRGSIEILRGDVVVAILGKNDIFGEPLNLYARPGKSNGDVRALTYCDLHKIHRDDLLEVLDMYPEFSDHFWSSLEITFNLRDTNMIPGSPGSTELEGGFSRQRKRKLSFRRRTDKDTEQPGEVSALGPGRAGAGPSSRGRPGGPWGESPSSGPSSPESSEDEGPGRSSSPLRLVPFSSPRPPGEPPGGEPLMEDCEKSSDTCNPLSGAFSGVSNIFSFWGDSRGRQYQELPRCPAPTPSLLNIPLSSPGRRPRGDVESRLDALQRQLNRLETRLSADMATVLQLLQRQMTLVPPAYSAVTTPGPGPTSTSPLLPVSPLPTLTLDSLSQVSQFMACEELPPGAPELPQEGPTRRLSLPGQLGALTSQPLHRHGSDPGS

SMILES	hERG current change (%, negative = inhibition) at 1uM [%]
CCOC(=O)C1CCN(CC(O)COc2ccc(C(C)(C)C)cc2)CC1.Cl (stereo not shown)	-53.2
COC(=O)C1CCN(C(=O)c2ccc(SC)cc2OC)CC1	1.02
Cc1cc(C)n2nc(C(=O)NCc3ccco3)nc2n1	8.14
C=CCn1c(=O)[nH]c2nc3cc(N=CN(C)C)c(C)cc3nc2c1=O	3.52
Cc1cccc(C)c1OCc1cc(C(=O)NCC2COCCO2)no1 (stereo not shown)	5.54
CCOC(=O)c1ccc(N=c2sc(C(=O)OC)cc(=O)n2CCCN2CCOCC2)cc1.Cl	7.48
CC(C)C(=O)Nc1c(C(=O)c2ccc(F)cc2)oc2ccccc12	12.2
COc1ccc(O)c(C(=O)c2cc(C#N)c(=O)n(-c3ccc(Cl)cc3)c2)c1	10.1
COC(=O)c1ccc(SCc2cnc(Cl)s2)cc1	7.26
COc1ccc(S(=O)(=O)N2CCOCC2)cc1NC(=O)CSc1n[nH]c(C(C)C)n1	17.4
CCc1nnc(NC(=O)CSc2nnnn2-c2cccc(C(C)=O)c2)s1	14.3
CS/C(Nc1cc(Cl)ccc1Cl)=C(/C#N)C(=O)c1ccco1	9.86
Cc1ccc(C(=O)NCCCNc2ccc(C(F)(F)F)cc2[N+](=O)[O-])cc1	6.4
CCOc1ccc(CN2CCN(Cc3ccon3)CC2CCO)cc1 (stereo not shown)	-33.5
O=C1CCc2cc(OCCCCc3nnnn3C3CCCCC3)ccc2N1	-46.5
O=C(Nc1cccc(F)c1)c1cccnc1NCCc1ccccc1	9.68
Cc1ccccc1Cn1c(=O)[nH]c2ccccc21	6.94
COc1ccc(S(=O)(=O)N(CC(=O)NCC2CCCO2)Cc2ccccc2)cc1 (stereo not shown)	7.44
COc1ccc(N2CC(C(=O)Nc3nnc(SCc4ccccn4)s3)CC2=O)cc1 (stereo not shown)	7.45
O=C(c1ccccc1)N1N=C(c2ccccc2)CC1c1ccccc1 (stereo not shown)	13.6
CCOC(=O)C1=C(C)N(C)C(=O)NC1c1cc2c(cc1[N+](=O)[O-])OCO2 (stereo not shown)	16.9
C/C(=N\NC(=O)c1ccc(CN2CCOCC2)cc1)c1cccc([N+](=O)[O-])c1	9.6

SMILES	hERG current change (%, negative = inhibition) at 1uM [%]
CC(C)C(=O)NNC(=O)CN1CCN(c2nc(-c3ccccc3)cs2)CC1	3.53
Cc1cc(C)nc(/N=C2\NC(=O)CC(C(=O)O)N2c2ccc(Cl)cc2)n1 (stereo not shown)	14.8
COC(=O)COc1ccc(C(=O)OC)cc1	18.6
CCc1c(C)nc(SCC(=O)CC(=O)OC(C)C)c(C#N)c1C	9.18
COc1ccc(S(=O)(=O)N2CCN(Cc3cc(OC)c(O)c(OC)c3)CC2)cc1.O=C(O)C(=O)O	13.9
CCN(Cc1ccccc1)C(c1ccccn1)c1nnnn1C1CCCCC1 (stereo not shown)	-7.86
COc1c(N2CCN(C(=S)NC3CC4CCC3C4)C(C)C2)c(F)cc2c(=O)c(C(=O)O)cn(C3CC3)c12 (stereo not shown)	3.97
Cc1ccc(C(=O)OCC(=O)NCc2ccc(F)cc2)o1	17.5
CC(=O)NC(CC(=O)OCC(=O)N1CCc2ccccc21)c1ccccc1 (stereo not shown)	14.8
CCCn1nnc(NC(=O)c2ccccc2Br)n1	16
CCOc1ccc(NC(=O)CN(C)S(=O)(=O)c2ccc(-c3ccc(=O)[nH]n3)s2)cc1	8.62
CC1CCc2nc3ccccc3c(C(=O)OCC(=O)NC3CCS(=O)(=O)C3)c2C1 (stereo not shown)	13
COc1ccc(N(C(=O)/C=C/c2ccc(OC)c(OC)c2)C2=CC3CCC(C2)N3C)cc1.Cl (stereo not shown)	-42.8
CCN(C(=O)COC(=O)c1cc(C)n(C2CC2)c1C)c1ccccc1	8.7
COC(=O)c1[nH]c2ccc(Cl)cc2c1NC(=O)CN1CCC(C(N)=O)CC1	10.6
CC(=O)C1=C(C)OC(N)=C(C#N)C1c1ccco1 (stereo not shown)	11.5
COc1ccc(OCCCC(=O)Nc2nc(C)c(C(C)=O)s2)cc1	10.2
CCOC(=O)C1CCN(C(=O)c2cccnc2)CC1	8.25
Br.CCc1ccc(C(=O)Cn2ccsc2=N)cc1	13.7
CN(C)Cc1c(C(=O)N/N=C/c2cccs2)nnn1-c1nonc1N	5.63
C=CCOC(=O)C1=C(C)OC(N)=C(C#N)C1c1c(C)nn(-c2ccccc2)c1Cl (stereo not shown)	8.3
Cc1cc(OCC(=O)c2ccc(F)cc2)ccc1N1C(=O)CCC1=O	12.7

SMILES	hERG current change (%, negative = inhibition) at 1uM [%]
CC1=C(C(=O)Nc2ccccc2C(=O)NCc2ccccc2)SCCO1	16.5
CS(=O)(=O)/C(C#N)=C\c1cnc(S(=O)(=O)c2ccccc2)s1	17.2
COC(=O)c1ccc(CSc2nnc(Nc3ccc(C)cc3)s2)o1	13.2
Cc1cccc(C)c1NC(=O)CNC(=O)CCC(=O)c1cccs1	-2.47
Cc1ccccc1-c1nc(CS(=O)CC(=O)NC2CCCCC2)c(C)o1 (stereo not shown)	11.5
COc1ccc(NC(=O)c2c(Cl)cnn2C)c(C)c1	7.37
Cc1cc(S(=O)(=O)Nc2cccnc2)c(C)s1	2.46
CC(C)(CO)Nc1nc(Nc2ccccc2)nc(Nc2ccccc2)n1	1.4
COc1cc2[nH]c(C(=O)Nc3ccc(F)cc3)cc2c(OC)c1OC	10.7
Cc1ccccc1NC(=O)Cn1nnc(C(=O)NCc2ccco2)c1N	4.07
Cc1cnc(C(=O)NC2CC(C)(C)Cc3c2cnn3-c2ccccc2)cn1 (stereo not shown)	-3.1
Cn1nc(C(=O)NCc2ccc(Cl)cc2)c2c1-c1ccccc1S(=O)(=O)C2	13.5
CCC(C(=O)NCc1ccco1)N(C(=O)CNS(=O)(=O)c1ccc(C)cc1)c1ccccc1F (stereo not shown)	8.6
Cc1nc2cc(C(=O)OCC(=O)N(CC(C)C)C3CCS(=O)(=O)C3)ccc2n1-c1ccccc1 (stereo not shown)	3.89
Cc1ccc(S(=O)(=O)c2nnn3c2nc(N2CCCCC2)c2ccccc23)cc1	3.01
CCCCSc1nc2c(c(=O)n1CC)SC(C)C2 (stereo not shown)	14.4
O=C(NNS(=O)(=O)c1ccccc1)C1CC(c2cccnc2)=NO1 (stereo not shown)	13.2
CCCCc1c(C)nc2nc(SCc3ccc(Cl)cc3)[nH]n2c1=O	5.15
CCc1cccc(CC)c1NC(=O)COn1nnc2ccc(C(F)(F)F)cc21	20.3
CC1CCCCC1NC(=O)CCCCCn1c(=S)[nH]c2ccccc2c1=O (stereo not shown)	10.5
Cc1cccc(Nc2nc(N)nc(CN3CCC(C)CC3)n2)c1C	-2.5
CCc1ccc(NC(=O)Cn2ccn(-c3cccc(Cl)c3)c(=O)c2=O)cc1	-2.31

SMILES	hERG current change (%, negative = inhibition) at 1uM [%]
CCc1cc(CNC(=O)CC2C(=O)NCCN2Cc2ccccc2C(F)(F)F)on1 (stereo not shown)	11.5
C=CCn1c(O)c(C(C)=Nc2ccc(C(=O)O)cc2)c(=O)[nH]c1=O	10.5
COc1ccccc1NC(=O)c1ccc(NC(=O)CSc2nc(N)cc(=O)[nH]2)cc1	13.5
CC(C)CC(COCc1ccc([N+](=O)[O-])cc1)N1CCN(C(=O)c2ccc(C(F)(F)F)cc2)CCC1=O (stereo not shown)	-14.1
c1ccc2[nH]c(-c3ccncc3)nc2c1	9.76
Cc1ccc(SC[C@H](Cc2ccccc2)N2CC[C@@H](C)CCC2=O)cc1	-3.01
COc1ccc2oc(C(=O)OCC(=O)N3CCN(S(=O)(=O)c4ccccc4)CC3)c(C)c2c1	18.4
N#CN=C(c1ccccc1)c1ccccc1	14.6
CCn1c(-c2csc(-c3ccc(Cl)cc3)n2)n[nH]c1=S	9.28
CCOC(=O)C1=C(C)N(CCC(=O)O)C(=O)NC1c1ccccc1Cl (stereo not shown)	15.9
O=C(COC(=O)c1ccccn1)NC1CCCCC1	6.24
N#Cc1ccc(-c2cccs2)nc1SCc1cccnc1	15.3
Cc1ccc(N2C(N)=C(C#N)C3(C(=O)N(C)c4ccccc43)C3=C2CC(C)(C)CC3=O)cc1Cl (stereo not shown)	4.85
CCCCOc1ccc(C(=O)NCC(=O)NNC(=O)C2COc3ccccc3O2)cc1 (stereo not shown)	-0.895
Cc1ccc(-c2ccc(=O)n(Cc3cc(C)ccc3C)n2)cc1	16.1
O=C1NC2C(NC(=O)N2C2CCCCC2)N1C1CCCCC1 (stereo not shown)	17
COc1ccc(OC)c(-c2c3c([nH]c(=S)c2C#N)CCCC3)c1	10.1
COCCOC(=O)C1=C(N)Oc2c(oc(CO)cc2=O)C1c1ccccc1F (stereo not shown)	0.408
COc1cccc(/C=N/n2c(COc3ccccc3)n[nH]c2=S)c1OC	16.1
COc1ccc(N2CCN(C(=O)c3cc4c(=O)n(Cc5ccccc5)ccc4nc3C)CC2)cc1	-1.72
Cc1ccc(/C(N)=N/OC(=O)/C=C/c2ccccc2)cc1	9.84
CCO.O=c1[nH]c(NNC(=S)NCc2ccccc2)nc2c1C1(CCCCC1)Cc1ccccc1-2	10.2
